# Where “and” joins values, the source holds several entries; their conditions need not be identical. Identical values can stand only once. Inconclusive means that the source gave no clear call. Such entries were picked first, then a sample of the others. For some of these results: Potencies beside an inconclusive call are fits to weak or partial responses and may not hold up. Calls of active or inactive are those of the source. Unless noted, calls follow the shape of the dose curve; as a rule, active = well fitted curve in the direction sought with a large enough effect in the repeat runs; inconclusive = weak or mixed curves; inactive = no such curve, though single readings can be large; an effect the other way counts as inactive or inconclusive.
# What was measured:
# [1] = target: Peroxisome proliferator-activated receptor gamma (Homo sapiens) (UniProt P37231); experiment: qHTS assay to identify small molecule antagonists of the peroxisome proliferator-activated receptor gamma (PPARg) signaling pathway (AID 743191; calls by dose curve; also: % is scaled to controls: 0 for no effect and ±100 for the full control effect; nearly all actives have a fitted effect of over 30% in size); settings: HEK293H PPARg-UAS-bla, beta-lactamase ratio, antagonist, 17 h; ratio activity, negative = inhibition: at 62.6 µM (top of the series) unless noted
# In short: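 GeneBLAzer PPARg UAS-bla HEK293H cells, 5 h post-plating, exposed to compounds 17 h at 37C. LiveBLAzer B/G FRET substrate added for 1 h at room temperature; beta-lactamase reporter read by fluorescence intensity.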
# [2] = qHTS assay to identify small molecule agonists of the peroxisome proliferator-activated receptor delta (PPARd) signaling pathway - cell viability counter screen (AID 743211); settings: PPARd-bla HEK293H viability, CellTiter-Glo luminescence, 17 h; activity change, negative = cytotoxicity: at 62.6 µM (top of the series); also: nearly all actives have a fitted effect of over 55% in size; also: potency is read from the fitted curve at half-maximal effect; as to activity change, negative = cytotoxicity: % is scaled to controls: 0 for no effect and ±100 for the full control effect
# In short: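 Luminescent ATP viability assay (CellTiter-Glo, 30 min RT) in UAS-bla HEK293H cells carrying the PPAR delta reporter construct, 3000 cells/well, after a 17 h compound treatment at 37 C.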
# [3] = qHTS assay to identify small molecule antagonists of the peroxisome proliferator-activated receptor gamma (PPARg) signaling pathway - cell viability counter screen (AID 743194); settings: PPARg-bla HEK293H viability, CellTiter-Glo luminescence, 17 h, co-treated with 50 nM rosiglitazone; activity change, negative = cytotoxicity: at 62.6 µM (top of the series) unless noted; also: nearly all actives have a fitted effect of over 55% in size; also: potency is read from the fitted curve at half-maximal effect; as to activity change, negative = cytotoxicity: % is scaled to controls: 0 for no effect and ±100 for the full control effect
# In short: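 Cytotoxicity counter screen in PPARg-bla HEK293H cells, same wells as reporter assay. Compounds plus 50 nM rosiglitazone (final) for 17 h at 37 C, then viability read by CellTiter-Glo luminescence.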
# [4] = qHTS assay for small molecule activators of the heat shock response signaling pathway - cell viability counter screen (AID 743209); settings: HSE-bla HeLa viability, CellTiter-Glo luminescence, 5 h; activity change, negative = cytotoxicity: at 62.6 µM (top of the series) unless noted; also: nearly all actives have a fitted effect of over 50% in size; also: potency is read from the fitted curve at half-maximal effect; as to activity change, negative = cytotoxicity: % is scaled to controls: 0 for no effect and ±100 for the full control effect
# In short: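 Luminescence from CellTiter-Glo, added after the beta-lactamase FRET read, gave the viability signal. Cells were HSE-bla HeLa treated with DMSO-dissolved compounds for 5 h at 37 C following overnight plating.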
# [5] = qHTS assay for small molecule agonists of the antioxidant response element (ARE) signaling pathway (AID 743202; active = well fitted activation curve with a large enough effect in the signal ratio in the repeat runs, not every such curve was filed as active; inconclusive = weak or mixed curves, or effect the other way; inactive = no such curve, though single readings can be large or run the other way; the % refers to the signal ratio; also: potency is read from the fitted curve at half-maximal effect; as to activation: % is scaled to controls: 0 for no effect and ±100 for the full control effect); settings: HepG2 ARE-bla reporter, beta-lactamase FRET, 16 h; activation: at 73.3 µM (top of the series) unless noted
# In short: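 Agonist mode reporter screen: HepG2 cells with ARE-controlled beta-lactamase are incubated with test compounds for 16 h at 37 C, and beta-lactamase activity is measured as fluorescence of cleaved B/G FRET substrate.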
# [6] = qHTS assay for small molecule activators of the heat shock response signaling pathway (AID 743210; active = well fitted activation curve with a large enough effect in the signal ratio in the repeat runs, with a control signal flat, not every such curve was filed as active; inconclusive = weak or mixed curves; the % refers to the signal ratio; also: potency is read from the fitted curve at half-maximal effect); settings: HeLa HSE-bla reporter, beta-lactamase ratio, 5 h; activation: at 62.6 µM (top of the series) unless noted
# In short: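 Quantitative high-throughput format using an engineered HeLa line in which heat shock response elements drive beta-lactamase; after 5 h with compound, cells received a B/G FRET substrate and fluorescence was read.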
# Tags tell the direction and shape of the fitted curve or compound fluorescence and quenching.
# Sequence of UniProt P37231 (P37231 whole entry, looked up): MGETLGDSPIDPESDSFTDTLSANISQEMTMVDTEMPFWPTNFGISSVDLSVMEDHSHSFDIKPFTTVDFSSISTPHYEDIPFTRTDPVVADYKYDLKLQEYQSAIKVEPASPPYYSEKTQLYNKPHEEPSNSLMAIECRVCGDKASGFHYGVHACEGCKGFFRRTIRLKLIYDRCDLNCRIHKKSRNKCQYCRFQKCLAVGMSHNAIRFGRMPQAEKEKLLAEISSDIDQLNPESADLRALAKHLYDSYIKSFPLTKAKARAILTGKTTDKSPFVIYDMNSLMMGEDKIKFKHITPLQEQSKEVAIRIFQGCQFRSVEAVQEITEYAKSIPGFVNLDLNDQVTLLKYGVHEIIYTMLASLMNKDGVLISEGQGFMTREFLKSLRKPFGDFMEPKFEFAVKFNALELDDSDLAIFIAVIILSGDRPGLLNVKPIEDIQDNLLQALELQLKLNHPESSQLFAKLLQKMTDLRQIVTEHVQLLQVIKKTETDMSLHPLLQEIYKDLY
smiles,measurement,setting,value
Cc1ccc(C)c(O)c1,"ratio activity, negative = inhibition",[1],inconclusive: 5.93%
same,Potency,[2],inactive
CCCCCC,Potency,[3],inactive
CC(C)C(=O)c1c(C(C)C)nn2ccccc12,"ratio activity, negative = inhibition",[1],inconclusive: 21.2%
same,Potency,[4],"inconclusive: 0.188 µM [rising, single point]"
Cc1cccc2cccnc12,"ratio activity, negative = inhibition",[1],inconclusive: 1.81%
same,Potency,[4],"inconclusive: 0.0014 µM [cytotoxic, full curve]"
same,Potency,[2],inactive
CN(C)C(=O)Oc1cccc([N+](C)(C)C)c1,"ratio activity, negative = inhibition",[1],inconclusive: 10.8%
same,Potency,[4],inactive
CCCCCC1Nc2cc(C(F)(F)F)c(S(N)(=O)=O)cc2S(=O)(=O)N1 (configuration not stated),Potency,[3],inactive
same,Potency,[5],inactive
O=C(C(=O)c1ccco1)c1ccco1,Potency,[3],"inconclusive: 13.9 µM [rising, partial curve, poor fit]"
same,Potency,[5],"inconclusive: 54.9 µM [rising, partial curve]"
C/C=C(C)/C=C/C=C(C)C,Potency,[3],"inconclusive: 2.16 µM [rising, partial curve, poor fit]"
same,Potency,[5],active: 60.4 µM
same,activation,[5],inconclusive: 37.9%
same,Potency,[6],"inconclusive: 57.5 µM and inconclusive: 61.7 µM [activator, partial curve, poor fit]"
same,Potency,[2],"inactive and inconclusive: 8.71 µM [cytotoxic, full curve, poor fit]"
NC(N)=NCCN1CCCCCCC1,"activity change, negative = cytotoxicity",[3],inactive: 6.29% [at 0.55 µM]
same,activation,[5],inactive: 4.68% [at 0.756 µM]
CC(C)[C@@H]1CC[C@@H](C)CC1=O,Potency,[3],"inconclusive: 18.8 µM [cytotoxic, partial curve, poor fit]"

# Source: PubChem BioAssay (Tox21)
